# According to PubChem BioAssay AID894 (National Center for Advancing Translational Sciences (NCATS), 2007):
# Where “and” joins values, the source holds several entries; their conditions need not be identical. Equal values may be shown once. Hit rate of the full screen: of about 150,000 compounds, about 6,500 (4.3%) were called active. This list was built around the results that the source calls inconclusive (neither active nor inactive); the mix of calls is not that of the screen. The call rests on the fitted dose curve; in most records, active means well fitted inhibition curve with a large enough effect (not every such curve was filed as active); inconclusive means small, poorly fitted or top-dose-only effect, or another doubt; inactive means no such curve, though single readings can be large or run the other way. Potencies of inconclusive entries are left out as doubtful fits. Where a structure was tested more than once in an assay, its records may differ in their call.
# Target: 15-hydroxyprostaglandin dehydrogenase [NAD(+)] (Homo sapiens) (UniProt P15428)
# Assay: qHTS Assay for Inhibitors of HPGD (15-Hydroxyprostaglandin Dehydrogenase)
# Conditions: purified HPGD, NADH fluorescence kinetic, PGE2 substrate; activity change, negative = inhibition: stronger effect = lower value
# How it was run: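 20 nM HPGD preincubated 15 min at room temperature with compound in 50 mM Tris-HCl pH 8, 0.01% Tween 20. Started with 1 mM NAD+ and 30 uM prostaglandin E2; NADH fluorescence (360/450 nm) read 5 times over 30-s intervals, last minus first.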
# On the % scale 0 is the no-effect control and ±100 the full control effect; potency means the concentration at half of the fitted maximal effect; tags describe the fitted curve by direction and shape.
# Sequence of UniProt P15428 (P15428 whole entry, looked up): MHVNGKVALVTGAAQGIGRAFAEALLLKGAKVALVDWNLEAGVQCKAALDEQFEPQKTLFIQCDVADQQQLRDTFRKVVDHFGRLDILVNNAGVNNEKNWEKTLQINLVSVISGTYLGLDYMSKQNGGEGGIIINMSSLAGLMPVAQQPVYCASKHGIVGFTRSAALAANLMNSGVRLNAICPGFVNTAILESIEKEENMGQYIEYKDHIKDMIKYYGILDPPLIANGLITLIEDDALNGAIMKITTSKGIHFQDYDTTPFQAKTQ
SMILES,"activity change, negative = inhibition",Potency
C/C=C1/CN2CC[C@]34C(=C(C=O)[C@H]1C[C@@H]23)Nc1ccccc14,inactive: -3.03%,
CC/C=C\C[C@@H](/C=C/C=C\C/C=C\C/C=C\CCCC(=O)O)OO,inactive: 0.0453%,
Nc1ccccc1C(=O)OCCOc1ccccc1,,"inconclusive [inhibitor, partial curve]"
CNC(=O)OCC[N+](C)(C)C,inactive: -8.41%,
COc1ccc(N)cc1,inactive: -6.88% and inactive: -3.68%,
CC[n+]1c(-c2ccccc2)c2cc(N)ccc2c2ccc(N)cc21,,active: 35.5 µM
CN1CCN(C(=S)c2ccc([N+](=O)[O-])cc2)CC1,,active: 28.2 µM
CC(C)c1ccc(-n2c(O)c(/C=N/NC(=O)c3ccncc3)c(=O)[nH]c2=O)cc1,inactive: -29%,
O=C(Nc1cccc2ccccc12)c1nn(C23CC4CC(CC(C4)C2)C3)cc1Br,,"inconclusive [inhibitor, partial curve]"
O=[N+]([O-])c1cc(S(=O)(=O)c2ccc(O)c([N+](=O)[O-])c2)ccc1O,,"inconclusive [inhibitor, partial curve]"
CCOC(=O)c1ncc2[nH]c3ccc(OCc4ccccc4)cc3c2c1COC,,"inconclusive [inhibitor, partial curve]"
C/C(=N/OC(=O)N(C)C)c1ncc(C(F)(F)F)cc1N1CCOCC1,,"inconclusive [inhibitor, partial curve]"
Fc1ccc2c(c1)nnn2C1CCN(Cc2nnnn2CCc2ccccc2)CC1,inactive: -3.58%,
CC(C)c1ccc(N2C(=O)NC(=O)/C(=C\c3cnc(-c4ccccc4)nc3)C2=O)cc1,,active: 25.1 µM
COc1ccc(C=C2C(=O)N(C)C(=O)N(C)C2=O)cc1CSc1ccccn1,,active: 25.1 µM
O=C1C=Cc2ccccc2C1=O,,active: 7.94 µM
CN1CCc2cc3c(cc2C1O)OCO3 (stereo not given),,"inconclusive [inhibitor, partial curve]"
CCCCCn1c(SCCCC)nc2c1c(=O)[nH]c(=O)n2C,,active: 14.1 µM
C[C@H]1CN(C2CCC(C#N)(c3ccc(F)cc3)CC2)CC[C@@]1(C(=O)O)c1ccccc1 (stereo not given in full),inactive: 2.32%,
COc1cc2c(cc1O)-c1c(O)c(OC)cc3c1[C@H](C2)N(C)CC3,,"inconclusive [inhibitor, partial curve]"
O=c1c(O)c(-c2ccc(O)c(O)c2)oc2c(O)c(O)cc(O)c12,,active: 17.8 µM
O=C(Cn1c2c(c(-c3ccccc3Cl)cc1=O)CCC2)N1CCC2(CC1)OCCO2,,"inconclusive [inhibitor, partial curve]"
CSCc1nnc2n1-c1ccc(Cl)cc1C(c1ccccc1)=NC2,,"inconclusive [inhibitor, partial curve, poor fit]"
CN1C(=O)/C(=C/c2cccn2-c2ccc3ccccc3c2)C(=O)NC1=S,,active: 14.1 µM

SMILES,"activity change, negative = inhibition",Potency
O=C(Cc1ccccc1)Oc1ccc(N2C(=O)CCC2=O)cc1,,"inconclusive [inhibitor, single point]"
CCCCCCOc1ccc(CN2CCN(C)CC2)cc1,,"inconclusive [inhibitor, single point]"
O=C(OC1Cc2c(O)cc(O)cc2OC1c1cc(O)c(O)c(O)c1)c1cc(O)c(O)c(O)c1 (stereo not given),,active: 14.1 µM
Cc1ccc(CC2C(=O)N(C)C(=O)N(C)C2=O)s1,,"inconclusive [inhibitor, partial curve]"
Cc1cccn2c(=O)c3cc(C(=O)N4CCC5(CC4)OCCO5)n(C)c3nc12,,"inconclusive [inhibitor, partial curve]"
CN1CCc2c(C#N)c(Cl)nc(Cl)c2C1,,"inconclusive [inhibitor, partial curve]"
COc1cc2[nH]c(=O)[nH]c(=O)c2cc1OC,,"inconclusive [inhibitor, partial curve]"
CCCCn1cnc2cc(NCc3cccc(OC)c3O)ccc21,,"inconclusive [inhibitor, partial curve]"
c1ccc(N2CC3(CCNCC3)C2)nc1,,"inconclusive [inhibitor, partial curve]"
CCCn1c(C)c(C(=O)c2ccc3ccccc3c2)c2ccccc21,,"inconclusive [inhibitor, partial curve]"
CN1CCCC2(CCN(C(=O)Oc3ccccc3)CC2)C1,inactive: -5.61%,
Nc1ncnc2c1ncn2[C@@H]1O[C@H](COP(=O)(O)CP(=O)(O)OP(=O)(O)O)[C@H](O)[C@H]1O,inactive: -5.99%,
COc1cccc(-n2c(O)c(C=NCCN3CCOCC3)c(=O)[nH]c2=O)c1,inactive: -4.69%,
C[N+]1(C)CCO[C@](O)(c2ccc(-c3ccc([C@]4(O)C[N+](C)(C)CCO4)cc3)cc2)C1,inactive: 0.141%,
CCCCn1c(NS(=O)(=O)c2ccccc2)c(C(=O)OCC)c2nc3ccccc3nc21,,"inconclusive [inhibitor, partial curve]"
CC(=NCc1ccco1)c1c(O)n(Cc2ccccc2)c(=O)[nH]c1=O,,"inconclusive [inhibitor, partial curve]"
CCCCn1c(=O)c(C=Nc2ccc(Cl)cc2)c(O)n(Cc2ccco2)c1=O,,"inconclusive [inhibitor, single point]"
CNC(Cc1c[nH]c2ccccc12)C(=O)O (stereo not given),inactive: -0.455%,
COc1ccc(N(CC(=O)Nc2cccc(SC)c2)S(C)(=O)=O)cc1Cl,,"inconclusive [inhibitor, partial curve]"
CCC(CO)NC(=O)C1C=C2c3cccc4[nH]cc(c34)CC2N(C)C1 (stereo not given),,"inconclusive [inhibitor, partial curve]"
c1ccc2c(CNC3CCCCC3)c[nH]c2c1,inactive: -9.57%,
CCCN1CCc2cccc3c2C1Cc1ccc(O)c(O)c1-3 (stereo not given),,"inconclusive [inhibitor, full curve]"
Nc1cccc2c(N)cccc12,,"inconclusive [inhibitor, partial curve]"
CCN1C(=O)NC(=O)/C(=C\c2ccc(N3CCOCC3)cc2OC)C1=O,,"inconclusive [inhibitor, single point]"

SMILES,"activity change, negative = inhibition",Potency
COC(=O)[C@@H]1c2cc3c(c(O)c2[C@@H](O)C[C@]1(C)O)C(=O)c1c(O)cc2c(c1C3=O)O[C@H]1O[C@@]2(C)[C@@H](O)[C@H](N(C)C)[C@H]1O,,"inconclusive [inhibitor, partial curve]"
Cn1c(O)c(C=Nc2ccc(Cl)cc2)c(=O)n(C)c1=O,,"inconclusive [inhibitor, single point]"
COc1cc2c(cc1C=O)OCO2,,"inconclusive [inhibitor, partial curve]"
O=c1c(C=Nc2cccnc2Cl)c(O)n(CCCCl)c(=O)n1C1CCCCC1,inactive: -6.42%,
O=c1c(O)c(-c2ccc(O)c(O)c2)oc2cc(O)cc(O)c12,,active: 8.91 µM and active: 20 µM
O=C(N/N=C/c1c(O)n(-c2ccccc2)c(=O)[nH]c1=O)c1ccncc1,,"inconclusive [inhibitor, partial curve]"
O=C(CN1CCCCC1)NCC(=O)Nc1ccc(Br)cc1C(=O)c1ccccc1,,active: 28.2 µM
CCCCCn1c(N)c(C(=O)NCCN2CCOCC2)c2nc3ccccc3nc21,,"inconclusive [inhibitor, partial curve]"
CC(=O)c1ccc(Oc2ccc(C(=O)c3ccc(C)c(C)c3)cc2[N+](=O)[O-])cc1,,active: 7.08 µM
Cc1ccc(S(=O)(=O)NCC(=O)OCC(=O)N2N=C(c3ccc(Cl)cc3)CC2c2ccco2)cc1C (stereo not given),,"inconclusive [inhibitor, partial curve]"
COC(=O)c1cc2c(cn1)[nH]c1ccccc12,,"inconclusive [inhibitor, single point]"
C[C@@H]1O[C@@H](O[C@H]2C[C@@H](O)[C@]3(CO)[C@H]4[C@H](O)C[C@]5(C)[C@@H]([C@@H]6COC(=O)C6)CC[C@]5(O)[C@@H]4CC[C@]3(O)C2)[C@H](O)[C@H](O)[C@H]1O,inactive: -6.87%,
CCN1C(=O)NC(=O)/C(=C/c2cc(C)n(-c3sc(C)c(C)c3C#N)c2C)C1=O,,active: 8.91 µM
Cc1ccc(/C=C2\C(=O)NC(=O)N(CCc3ccc(F)cc3)C2=O)o1,,active: 3.55 µM
COc1ccc(CCNC(=O)c2c(N)n(CCN3CCOCC3)c3nc4ccccc4nc23)cc1OC,,"inconclusive [inhibitor, partial curve]"
O=C1NO[C@@H]2CN[C@@H](C(=O)O)[C@H]12,inactive: -9.93%,
C=C1C/C(=C/C)C(=O)O[C@@H]2CCN3CC=C(COC(=O)[C@]1(C)O)[C@@H]23,inactive: 0.266%,
CCN(CC)C(=O)c1ccc(NC(=O)c2cccc(F)c2)cc1,,active: 14.1 µM
COC[C@H]1OC(=O)c2coc3c2[C@@]1(C)C1=C(C3=O)[C@H]2CCC(=O)[C@@]2(C)C[C@H]1OC(C)=O,,active: 31.6 µM
O=c1[nH]c(=O)n(-c2ccc(Cl)cc2)c(O)c1C=Nc1ccc(S(=O)(=O)Nc2nccs2)cc1,,active: 22.4 µM
CC(C)(C)c1cc(O)ccc1O,inactive: 0.771% and inactive: -3.88% and inactive: -2.38%,
N#C/C(=C\c1ccc(O)c(O)c1)C(=O)NCCCNC(=O)/C(C#N)=C/c1ccc(O)c(O)c1,,active: 15.8 µM
